Measurements reported in the supplement of paper PMC3334620.
The full ranking holds about 33,000 sequences; the median of “E-score (-0.5 to 0.5)” is about -0.016, and the highest 2% start at about 0.31. The list shows a part of the results.

These sequences were tested against Cst6 (UniProt P40535) (assay: PBM E-score (8-mer binding enrichment) (E-score (-0.5 to 0.5)); higher = stronger / more preferred TF binding; most listed sequences are background and not binding sites). Conditions: protein concentration: 200 nM; construct: GST-DNA-binding domain.
In short: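 Yeast transcription factors, full-length or as DNA-binding domains, were expressed with a GST tag using PURExpress in vitro transcription/translation. At about 100-200 nM they were applied to universal all-10-mer Agilent arrays, double-stranded by primer extension on fresh or once-stripped slides. Fluorescent anti-GST detected bound protein, and masliner normalised the scans. E-scores for ungapped eight-base words, pooled with reverse complements, came from the Universal PBM Analysis Suite.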

Sequence | PBM E-score
CGACGAAG | 0.0467
GTGTAGAA | -0.0168
CTATAGAC | -0.089
AGCTTGGG | -0.157
GGTTTGCA | -0.0562
CCAAAGCA | -0.0223
AATTACCC | 0.0706
CCAGAACC | -0.164
CAGAATGA | 0.14
GAAATGAA | 0.237
ATCCTTGC | -0.162
AACCATTG | 0.173
CGTTCAAA | -0.00443
CATTGCGA | 0.123
AGTTCCTG | -0.204
TGGCTCAA | -0.0112
AATCTGAT | 0.0951
CCTCTTAC | 0.0218
GGGTTAAC | -0.0244
AGCAAACA | 0.0308
CAGCGTCA | 0.279
CCAGGTCA | -0.242
CATTGAGA | 0.0681
GGATTCCC | -0.356
CACGGGCA | -0.142

Sequence | PBM E-score
CAGTAACC | -0.0172
GGTTATCA | -0.102
AACTTTGT | 0.11
CTTCTGGC | -0.141
ATTCCCCA | -0.282
CTTTTGTA | 0.221
AGCGAGAC | -0.0779
CTCATGCC | -0.0552
ACGACGGG | -0.0596
GTGGTGAA | -0.0462
TGCAACCA | -0.109
CCTGGACA | -0.229
CCTAGTAC | -0.139
CTGCACCA | -0.21
CCAGGCAA | -0.114
ATATAATA | 0.31
GGGTAACA | -0.0614
CACGCGTC | 0.171
CGCCATGC | 0.0733
CGCCGTGA | 0.221
CACGGGGC | -0.0119
AGAGGTCA | -0.145
CGTGGAAG | 0.0364
CGCCTTAA | 0.107
GGGGGACA | -0.393

Sequence | PBM E-score
CATTCACG | 0.0685
GGTGTGGA | -0.0926
GGACCTAA | -0.105
ATCACTTC | 0.19
CCCTTAAC | -0.31
AGACCCTC | -0.391
CAGTACTG | 0.0651
ATGGATGC | -0.155
ATTAACCG | 0.116
GACTCTAC | -0.235
TACTGGAA | 0.064
CGGTCTAG | -0.125
GGAGGGCA | -0.132
AAAATACG | 0.181
CAATTTCA | 0.145
CACAGCGC | -0.0545
GTCCTAAC | -0.0569
CAATCGTA | 0.206
AAGGGGGG | -0.414
ACTAGGGC | -0.27
CGCCGCCG | 0.0819
ATCCAAAG | 0.141
GGACCCTA | -0.284
GCTGCGGA | -0.0606
GTGTATCA | 0.186

Sequence | PBM E-score
CAGCACAC | -0.254
ACAACAAG | 0.0823
ACGTGCAT | 0.104
CTAGCACA | -0.248
ACTTCCCC | -0.155
TTCGACAA | 0.0645
CCCCAACG | -0.0952
CGAGTAAC | 0.0445
ACTCGTCA | 0.351
CTTAGGGA | -0.217
AAGTTAGG | 0.00013
AGTGTCAG | -0.144
ACTCCATC | -0.0515
GTGTGTGA | 0.176
GAATGGTA | 0.0416
ATGGCAAC | 0.164
AAATCGTA | 0.211
GTTCTTCA | 0.139
CACACAGG | 0.0469
GATGTTGC | 0.0844
ACAGACTC | -0.117
GCTGCCAA | -0.0668
CACCCACG | 0.0488
ATATGGCA | 0.125
ACCAGTTA | 0.138

Sequence | PBM E-score
CGCTGTCA | -0.107
AATCCTCG | -0.0864
AGTGTCTC | -0.243
CCGTTTAA | 0.179
TGCACAAA | 0.112
AGCCATAC | -0.0767
CCCGGATC | -0.117
CAGGGTCG | -0.223
CTCTTTTA | -0.118
AAAGATCC | 0.011
AGGTTCCG | -0.124
CGGAATAA | -0.218
ATGGTAAA | 0.138
AAGATCGT | -0.0305
CTTTTTAC | 0.183
CACTGCAC | -0.0826
AGTTCTTG | 0.0558
CGAAAATA | 0.189
GAGAGTTA | 0.027
ATCTCTTC | -0.0289
ACTCGCGC | 0.0551
AGATCAGC | -0.0995
CCATTACC | -0.00808
AAACTTAT | 0.27
AGGCAAGA | -0.0426

Sequence | PBM E-score
TGGGTCAA | -0.177
CTTTATTA | 0.221
CATCCGCA | 0.228
CGACGACG | 0.0651
CACGTTCC | -0.207
ACCGGTTC | -0.179
CATCTAGC | -0.0725
ATGAAGCG | -0.149
CGCGACGA | 0.0474
CAAGCTAG | -0.212
CAAACACA | 0.136
AGGTCGCC | -0.0626
AGAGTAGA | 0.00826
TATAATAA | 0.282
AGACCTTA | -0.028
AGATTACG | 0.386
TTTCCAAA | 0.0192
CCAATGGG | -0.39
GTTGATGA | 0.309
TATATAAA | 0.298
ACCTCACC | 0.126
CATTCTCA | 0.245
ACTCATGA | 0.251
CACGGCCG | 0.226
GATTTTGA | 0.254

Sequence | PBM E-score
AATTTATG | 0.216
AGGACGAC | -0.204
CATACGCA | 0.147
GTCAGCGA | 0.0241
AATCAGGG | -0.329
ACGGGACG | -0.0627
ATGAATTG | 0.174
GCACCCCA | -0.131
ATATTCAG | 0.00607
CCCACCAG | -0.282
ATGAGTCA | 0.238
CAAGTCCG | -0.229
AAATATGT | 0.298
AAAATACT | 0.157
AGGTCTAA | -0.0129
ACATGCCC | -0.153
CCCGTAGA | -0.321
ACCACGGT | -0.152
ACAATCGC | 0.123
AACTAAGG | 0.0828
GGCTTTGA | 0.0448
CGACCCTC | -0.341
